# Measured values as given in the supplement of paper PMC10185492.
# Some of the results follow. These are enrichments in a pooled selection; single values are uncertain.
# Tested on: SARS-CoV-2 3CLpro (nsp5)
# Assay: substrate phage enrichment score (protease-eluted vs HEPES control, +1 offset) (ratio); higher = better cleaved substrate
# Conditions: selection round: 4; protease elution time: 15 min
# Method: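 Random heptapeptide substrate phage display (M13 pIII fusion, heptapeptide between an N-terminal biotinylated AviTag GLNDIFEAQKIEWHE and pIII; phages immobilised on streptavidin) eluted by cleavage with 50 nM protease in 20 mM HEPES at 37 °C. Selected phages were NGS sequenced, and the enrichment score is (reads in protease sample + 1)/(reads in HEPES blank-selection control + 1).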
row,Substance,substrate phage enrichment score
1,ERDGKAP,> 35
2,LENPQGA,0.933
3,WGAAAHH,0.143
4,PTYRDRT,> 48
5,IDAAHHH,0.806
6,QSYFPIQ,0.12
7,RLGAPIT,1.39
8,THSRLCP,0.852
9,RCMHASC,3.12
10,PNDVVTT,> 22
11,RKPCLVQ,3.7
12,PSGLNQS,> 21
13,RGNPTCN,> 46
14,QERYPDV,> 29
15,LQGGSAA,1.45
16,SKTPVKT,5.07
17,HPQLQCQ,> 24
18,NAKVCGS,1.27
19,KTELSKS,5.6
20,ASPTTLQ,> 63
21,CFSPLWP,9.5
22,YQLNISG,1.69
23,QASARLQ,> 38
24,ASRQGVN,4.55

row,Substance,substrate phage enrichment score
1,HQNFERA,> 24
2,VYHGKDP,10
3,NGGPSRR,2.44
4,RQPPAAN,2.06
5,ATGDAYS,0.389
6,VGDSKLK,0.737
7,CQSDTYG,2.32
8,MAKTCAD,0.1
9,KPTYTGP,> 30
10,GNAQSWQ,5.75
11,VNDATGK,3.14
12,QENGTLR,> 21
13,AGGQLKA,7
14,THLLPQR,> 69
15,CEQGIWY,5
16,PCCVNCV,5
17,SRQHSPQ,2.5
18,TFAGCGS,3.17
19,FSIRADR,0.643
20,NDAAHHH,0.857
21,CVPGTIS,4.75
22,VKAAHHH,1.94
23,ERTRLQG,> 29
24,EMESLSV,> 22

row,Substance,substrate phage enrichment score
1,ALGGKEC,2.76
2,PVKERPR,8.5
3,LETHGGS,> 64
4,VEPMMSC,0.375
5,ALNFQGG,3.55
6,VSRPRPI,3.5
7,PCETLRQ,2
8,CSTGMVN,4.64
9,YPVRTSR,0.929
10,HKAAHHH,0.368
11,PDCLMCA,0.915
12,YENTLRQ,0.588
13,ETSNNLR,> 24
14,HDHHHHG,0.562
15,ETCPLPA,7.5
16,RRPGVRP,1.44
17,TSNFPER,1.31
18,LAAAHHH,0.903
19,HGCSGLQ,> 57
20,HILDSVS,0.63
21,TSTSHYR,14.5
22,RWSRTDV,1.5
23,AKLDNMM,> 51
24,NGGSAAA,0.917

row,Substance,substrate phage enrichment score
1,EWNAVTH,12.5
2,DRAESMS,0.941
3,TVFGTAA,1.65
4,ARHMTPG,> 42
5,IKTDAVR,0.087
6,TNAAALH,> 25
7,PHEPINK,2.5
8,CALNKFQ,> 33
9,WRELQSY,19
10,SRVPPQT,3
11,GLQGPLR,> 28
12,RCCGHSE,0.571
13,TTQEERV,11
14,RTADEAH,12
15,AVIRRTS,> 43
16,KCRYLPQ,> 23
17,SSAAHHH,1.18
18,DMREKPA,> 28
19,CAAAHHH,0.569
20,LHSSQET,> 41
21,VKPVLQS,> 22
22,FLKYSLE,> 30
23,VPCPERH,1.38
24,TGRAQLH,> 31

row,Substance,substrate phage enrichment score
1,QNNKSRN,> 40
2,SQTLLYG,11.3
3,PRTERHP,> 38
4,RAAAHQQ,1.19
5,ITTEGKR,63.5
6,SKAGSIR,1.75
7,NAARTWR,> 21
8,TNTDPGF,2.83
9,GNSCVVS,0.338
10,PTFSQGR,0.421
11,TRHPTML,1.81
12,CAAAQHQ,1.15
13,PGNASRN,> 35
14,SETQITD,> 33
15,NETAHHH,0.138
16,FLTECHR,3.67
17,TSCGADR,> 52
18,ANYNKLM,1.3
19,EIRTMQA,1.6
20,AISKPNR,1.09
21,GGTINAR,> 53
